# Laboratory results reported in the RNAGym collection of RNA variant scans (doi:10.7554/elife.90254).
# Read counts are not given, so values of variants with three or more changes are uncertain.
# B1: LINE1-mini (parent)
# chain: GGCAGAGCUCAACACAGCGUGGCAAAGUGGCUGUGGCUAGACUGCC
# Variants of: B1
# Assay: self-cleavage, relative activity (ratio to wild type); higher = more cleavage; in vitro, sequencing; the parent is a self-cleaving ribozyme
row,Variant,self-cleavage
1,G17U G35C U38G A39G,0.01
2,C18A A25G C31G,0.04
3,C18A G19C G29C C45G,0.13
4,C18G G19U G36U,0.04
5,C18G C37U G40A G44U,0
6,C18A U20A G33C G35U,0.02
7,G17U C23A C42A,0.15
8,G17U C31G C46A,0.04
9,G17U U20A A24C C31U,0.14
10,G17U G22A C23A A24G G36U,0.03
11,C18A G22U G27A G29U G40A C45A,0.19
12,G17U G22C C23A,0.47
13,C18A G22A G27U G36A,0.01
14,C18A G19A U20C A39C,0.24
15,G17U C23A A41U,0.09
16,G17U A41U C46U,0.04
17,C18A A25G G27C,0.01
18,G17U G21A U32C U34C G36A G40A,0.06
19,C18A G44U C46U,0.03
20,C18G G19U C23A C31U U32C G35C A41G G44U,0.13
21,C18G G21C G29U U32C G40A C45A,0

row,Variant,self-cleavage
1,G17U G27A G36C,0.08
2,G17U U28C U32A,0.07
3,C18G A24U U28A U32A G44C,0.01
4,C18A A24U U43A G44A,0.01
5,C18A G19A C23U,0.16
6,C18A G29C C46A,0.32
7,G17U G27U U28G,0.08
8,C18A C31U U43A C46U,0.01
9,C18A U32C G40C,0.04
10,G17U G22C G30A,0.36
11,G17U G30A U32C C42U,0.04
12,C18A U34A G40A C42G,0
13,C18A U20G G22U G29C,0.28
14,C18A A26G G40C,0.08
15,C18G G19A A39C C42A G44C C45G,0.03
16,G17U C31A A39U,0.51
17,G17U U20A G22C G27U,0.73
18,C18G G21C G30U,0.36
19,G17U G19C G40U U43A,0.05
20,C18A U34C G35C,0.04
21,C18A A24U C42U,0.07

row,Variant,self-cleavage
1,C18A A25G U34A,0.07
2,C18A U20C G40U C42G,0.01
3,C18A G19C G40U,0.01
4,C18G G19A U38A,1.77
5,G17U G22U C23A G27C A41G,0.43
6,C18G A26U G40A,0.01
7,G17U C23A A25C U28C G30A G35U,0.02
8,G17U C18U U32A U43G C46U,0.03
9,G17U C18A G21C A24U A39G U43A,0.21
10,G17U G29U G36A,0.09
11,C18A U34A C42U,0.03
12,G17U U20A G27A,0.37
13,G17U G19A U34C C37G G40C,0.03
14,C18G C31A C37U C45A,0.09
15,C18A G19C U20G U32A,0.07
16,C18A G22U A24U A41U,0.14
17,C18G G19A U34C,0.02
18,G17U U20C A26C G27C A41G G44U,0.06
19,C18A C31G U38A,0.11
20,G17U A26U G40A,0.01
21,G17U C31U G35A G44U,0.03

row,Variant,self-cleavage
1,G17U G35U G36A C46G,0.05
2,C18A G21U G40U,0.02
3,C18G G21C G35C,0.08
4,C18G C23A U34C G35U,0
5,C18A C23U A24U G40U C46A,0.08
6,G17U G35A A41C,0.01
7,C18G G22U C37A,0.12
8,C18A G19U A25G G30C,0.18
9,C18A G19U A41C,0.04
10,C18G G22U G40U C42U C45G,0.03
11,G17U G29U C37A,0.03
12,G17U G29U C31U,0.08
13,C18G G22U G29U C45U C46A,0.12
14,G17U G36U C46A,0.08
15,G17U C31U U32G U38G,0.01
16,G17U U20C A24U A25G A41G,0.01
17,G17U C18U G19A,0.07
18,C18A G30A U34G C42A,0.01
19,C18A G27U U38A C45A C46G,0.08
20,G17U G30C C46G,0.1
21,G17U G27A G30A C42U,0.23
